Data as given in publication PMC4336329 (PLoS ONE, 2015).
About 14,000 (4.5%) of roughly 310,000 compounds showed an effect of 50% or more. The effect is printed as a negative number. Some of the results follow.

target: human ether-à-go-go-related gene (hERG) potassium channel (human, UniProt Q12809); assay: primary screen, population patch clamp on CHO cells stably expressing hERG
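Also: peak tail current of the secondary pulse compared with the same well before compound.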

Chain of human ether-à-go-go-related gene (hERG) potassium channel (Q12809 whole entry, looked up): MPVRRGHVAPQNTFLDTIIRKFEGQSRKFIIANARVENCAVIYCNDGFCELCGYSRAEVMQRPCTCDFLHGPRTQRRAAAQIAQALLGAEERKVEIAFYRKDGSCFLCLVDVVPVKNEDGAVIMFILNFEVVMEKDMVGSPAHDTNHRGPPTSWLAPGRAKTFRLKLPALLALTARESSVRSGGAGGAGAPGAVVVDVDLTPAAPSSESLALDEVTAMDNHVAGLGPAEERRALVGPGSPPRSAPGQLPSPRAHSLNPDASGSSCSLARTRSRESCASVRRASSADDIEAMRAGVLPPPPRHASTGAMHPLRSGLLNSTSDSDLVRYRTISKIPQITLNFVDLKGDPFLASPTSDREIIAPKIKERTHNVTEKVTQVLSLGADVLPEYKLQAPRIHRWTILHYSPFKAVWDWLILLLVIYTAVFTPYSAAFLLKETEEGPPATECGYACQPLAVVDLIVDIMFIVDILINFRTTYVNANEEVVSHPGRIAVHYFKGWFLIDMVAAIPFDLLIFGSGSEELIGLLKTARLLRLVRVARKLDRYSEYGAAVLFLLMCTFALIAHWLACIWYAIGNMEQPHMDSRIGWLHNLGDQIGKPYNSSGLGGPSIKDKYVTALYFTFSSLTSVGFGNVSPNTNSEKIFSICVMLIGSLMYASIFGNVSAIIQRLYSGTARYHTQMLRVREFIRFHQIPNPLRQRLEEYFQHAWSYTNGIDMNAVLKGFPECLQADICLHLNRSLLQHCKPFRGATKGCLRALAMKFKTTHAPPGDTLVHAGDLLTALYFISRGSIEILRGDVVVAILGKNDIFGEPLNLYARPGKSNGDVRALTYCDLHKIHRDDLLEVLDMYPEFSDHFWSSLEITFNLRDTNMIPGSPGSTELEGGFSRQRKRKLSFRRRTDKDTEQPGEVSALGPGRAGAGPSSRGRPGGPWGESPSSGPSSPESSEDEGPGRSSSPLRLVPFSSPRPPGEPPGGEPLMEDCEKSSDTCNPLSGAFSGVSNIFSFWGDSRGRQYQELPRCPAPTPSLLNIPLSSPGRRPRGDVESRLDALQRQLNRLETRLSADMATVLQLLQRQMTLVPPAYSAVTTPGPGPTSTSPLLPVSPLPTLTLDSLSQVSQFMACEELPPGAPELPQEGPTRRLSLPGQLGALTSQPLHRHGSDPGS

Compound | hERG current change (%, negative = inhibition) at 10uM [%]
CCOC(=O)C1=C(O)/C(=C/c2ccc(OCC(=O)O)c(OCC)c2)SC1=Nc1ccc(C)cc1 | 24.8
O=C(Cc1cccs1)Nc1ccccc1C(=O)O | -1.79
CCCN(Cc1cc2cc(OC)ccc2[nH]c1=O)C(=O)c1ccncc1 | -17
CNC(C)C#Cc1ccc2c(=O)c3c(OC)cccc3oc2c1 (stereo not shown) | 0.579
O=C(NCCNS(=O)(=O)c1cccc(C(F)(F)F)c1)c1cc(OCC(F)(F)F)ccc1OCC(F)(F)F | 18
CN1CCN(NC(=O)c2ccc(F)cc2)CC1 | 23.1
O=CN1CCN(C(=O)c2ccc(-c3nc4ccccc4s3)s2)CC1 | -34.2
Cl.OCCCNCc1ccc(Cl)cc1Cl | -13.3
Cc1ccc(C(=O)/C=C/Nc2ccc([N+](=O)[O-])cc2Br)cc1 | -3.83
COc1ccc(C2CC(=O)OC3=C2C(=O)CC(C)(C)C3)c(OC)c1 (stereo not shown) | -1.81
COc1ccc(CCNC(=O)C(=O)NCc2ccc(C(C)C)cc2)cc1OC | 7.86
O=C(CCSCCc1ccccn1)Nc1ccccn1 | 20
O=C(NC(=S)N1CCN(c2nc(-c3ccccc3)cs2)CC1)c1cncc(Br)c1 | 17
O=C(O)CC(NNC(=O)c1ccccc1)C(=O)Nc1ccc([N+](=O)[O-])cc1 (stereo not shown) | 1.38
O=C(Cn1c(-c2ccccn2)nc2ccccc21)N/N=C/c1ccccn1 | -15.8
O=C(O)/C=C/c1cnc[nH]1 | 20.4
Cc1cc(C)c(C(=O)CN2C(=O)NC3(CCC(C)CC3)C2=O)cc1C (stereo not shown) | 11.1
COCCn1cnc2c1c(=O)n(CC(=O)OCC(=O)NCCCc1ccccc1)c(=O)n2Cc1ccccc1 | -57.9
COCCCn1c(C(=O)N2CC(C)OC(C)C2)cc2c(=O)n3cccc(C)c3nc21 (stereo not shown) | 0.735
CCc1nnc(NS(=O)(=O)c2ccc(NC(=O)/C=C/C(=O)O)cc2)s1 | 26.5
O=c1[nH]c(=O)n(Cc2ccc(F)cc2)c(O)c1C=NCCCO | -3.23
CC(NC(=O)CN(C)Cc1cccs1)c1ccccc1 (stereo not shown) | -8.15
COc1ccc(-c2ccc(SCC(=O)N3CCN(c4ccccc4)CC3)nn2)cc1 | 11.8

Compound | hERG current change (%, negative = inhibition) at 10uM [%]
Cc1ccc(/C=C/C(=O)N2CCN(c3ccc(F)cc3)CC2)o1 | -15.8
CC(C)(C)C(=O)NCc1ccc(C(=O)CSc2nnc(C3CC3)n2C2CC2)s1 | 6.81
Cc1ccc(C(=O)NCC(=O)NCC(=O)OCc2ccc(Oc3ccc([N+](=O)[O-])cc3)cc2)cc1 | -0.732
Cc1cc(NC(=O)C(=O)c2c(C)[nH]c3ccccc23)no1 | 1.67
CN(C(=O)c1ccccn1)C1(C(=O)NC2CCCCC2)CCCCC1 | 7.01
CSc1nc(C)cc(Oc2ccccc2)n1 | -7.34
CCC(C)[C@H](NC(=O)C1CC(=O)N(c2ccc(OC)cc2)C1)C(=O)NC1CCCC1 (stereo partly shown) | 15.2
Cc1ccc(C)c(CN2CCC(CNC(=O)Nc3ccc(Br)cc3F)CC2)c1 | -73.4
CC(Sc1nc(N(C)C)nc(N2CCOCC2)n1)C(=O)Nc1ccccc1 (stereo not shown) | 13.3
Cc1cc(C)n(Cc2ccc(C(=O)O)o2)n1 | 11.5
Clc1ccc(N=c2ssnc2Cl)nc1 | 11.5
COC(=O)c1c(NC(=O)CN2CCN(C(=O)c3ccco3)CC2)c2c(C)cccc2n1C | -7.25
O=C(c1ccc(F)cc1)c1cn[nH]c1-c1ccccc1O | 3.1
COc1cccc(NC(=O)CN(C)C(C)C(=O)Nc2ccc(C(C)=O)cc2)c1 (stereo not shown) | -22.9
CC12CN3CC(C)(CN(C1)C3c1cccs1)C2=O (stereo not shown) | 13.7
COC(=O)c1sccc1NC(=O)CSc1ccccc1NS(=O)(=O)c1cc(Cl)ccc1Cl | 12.3
O=C(NC1CC1)[C@@H]1CSC2c3ccccc3C(=O)N21 (stereo partly shown) | -6.1
O=C1CCCC/C1=C\Nc1ccc(S(=O)(=O)Nc2cnc3ccccc3n2)cc1 | -12
CCC(C)(C)NC(=O)C(c1ccccc1F)N(Cc1ccco1)C(=O)Cn1nnc2ccccc21 (stereo not shown) | -11.2
Cc1ccc(NS(=O)(=O)c2ccc3c(c2)N(C)CCO3)cc1 | -7.41
C=CCNC(=O)C1CC(=O)N(c2ccc(OCC(=O)Nc3ccc(OC)cc3)cc2)C1 (stereo not shown) | -3.5
CC(=O)Nc1cc(-c2nn(C)c(=O)c3ccccc23)ccc1N1CCOCC1 | 28.2
Cc1cc(C)c(C(=O)c2ccc(C(=O)N(C(C)C)C(C)C)cc2)c(C)c1 | -24.2
